Test results taken from article PMC11658185, “Analysis of the quadruple lsu mutant reveals molecular determinants of the role of LSU proteins in sulfur assimilation in Arabidopsis” (The Plant Journal, 2024).
No constants are given. Whether binding was seen depends on the method and setting. For some assays here: Binding seen in cells or lysates may run through a third protein. Some results given as binding are weak or reduced against the parent protein; the word gives no strength. For some assays here: Where a sequence is shown, tags or fusion partners need not be part of it.

T1: ATP sulfurylase isoform ATPS1 (A. thaliana), Q9LIK9
T1 chain: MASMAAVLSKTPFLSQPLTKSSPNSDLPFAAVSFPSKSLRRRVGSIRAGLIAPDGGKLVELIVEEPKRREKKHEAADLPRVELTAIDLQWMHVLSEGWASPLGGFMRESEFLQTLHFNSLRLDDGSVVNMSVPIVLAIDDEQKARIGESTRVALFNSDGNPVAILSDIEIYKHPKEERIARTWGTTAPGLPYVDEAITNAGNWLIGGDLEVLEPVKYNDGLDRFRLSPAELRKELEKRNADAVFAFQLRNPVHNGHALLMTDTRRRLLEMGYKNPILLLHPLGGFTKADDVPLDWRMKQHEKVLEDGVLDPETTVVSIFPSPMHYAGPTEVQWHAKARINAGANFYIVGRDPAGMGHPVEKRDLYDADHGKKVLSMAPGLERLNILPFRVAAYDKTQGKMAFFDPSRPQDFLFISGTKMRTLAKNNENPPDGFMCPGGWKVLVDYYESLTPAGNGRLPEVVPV

T2: adenosine 5' phosphosulfate reductase isoform APR1 (A. thaliana) (UniProt P92979)
T2 sequence: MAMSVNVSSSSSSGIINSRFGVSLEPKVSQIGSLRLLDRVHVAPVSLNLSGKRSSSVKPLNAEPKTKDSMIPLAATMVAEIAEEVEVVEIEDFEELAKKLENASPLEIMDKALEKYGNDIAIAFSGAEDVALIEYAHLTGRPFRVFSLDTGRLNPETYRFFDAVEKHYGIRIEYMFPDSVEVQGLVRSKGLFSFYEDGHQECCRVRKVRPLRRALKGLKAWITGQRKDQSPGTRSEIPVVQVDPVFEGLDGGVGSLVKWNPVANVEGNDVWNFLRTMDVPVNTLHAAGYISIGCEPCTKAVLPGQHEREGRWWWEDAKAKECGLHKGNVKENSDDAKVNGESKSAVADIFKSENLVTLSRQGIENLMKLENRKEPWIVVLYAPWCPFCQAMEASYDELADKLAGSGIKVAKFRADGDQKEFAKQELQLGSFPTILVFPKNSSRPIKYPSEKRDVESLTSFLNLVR

T3: adenosine 5' phosphosulfate reductase isoform APR2 (A. thaliana) (UniProt P92981)
T3 sequence: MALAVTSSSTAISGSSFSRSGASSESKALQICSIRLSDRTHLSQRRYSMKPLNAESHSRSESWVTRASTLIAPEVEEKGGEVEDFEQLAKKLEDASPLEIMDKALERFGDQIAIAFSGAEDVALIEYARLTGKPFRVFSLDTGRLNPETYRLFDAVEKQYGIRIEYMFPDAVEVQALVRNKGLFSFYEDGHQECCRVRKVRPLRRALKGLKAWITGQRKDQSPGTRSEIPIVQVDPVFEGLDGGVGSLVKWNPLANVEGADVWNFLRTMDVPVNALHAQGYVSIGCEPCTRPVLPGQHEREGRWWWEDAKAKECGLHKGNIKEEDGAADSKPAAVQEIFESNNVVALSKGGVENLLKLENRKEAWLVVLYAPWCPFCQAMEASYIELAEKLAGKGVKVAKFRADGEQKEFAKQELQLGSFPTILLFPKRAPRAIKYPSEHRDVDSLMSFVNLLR

T4: sulfite reductase (SiR) (A. thaliana) (UniProt Q9LZ66)
T4 sequence: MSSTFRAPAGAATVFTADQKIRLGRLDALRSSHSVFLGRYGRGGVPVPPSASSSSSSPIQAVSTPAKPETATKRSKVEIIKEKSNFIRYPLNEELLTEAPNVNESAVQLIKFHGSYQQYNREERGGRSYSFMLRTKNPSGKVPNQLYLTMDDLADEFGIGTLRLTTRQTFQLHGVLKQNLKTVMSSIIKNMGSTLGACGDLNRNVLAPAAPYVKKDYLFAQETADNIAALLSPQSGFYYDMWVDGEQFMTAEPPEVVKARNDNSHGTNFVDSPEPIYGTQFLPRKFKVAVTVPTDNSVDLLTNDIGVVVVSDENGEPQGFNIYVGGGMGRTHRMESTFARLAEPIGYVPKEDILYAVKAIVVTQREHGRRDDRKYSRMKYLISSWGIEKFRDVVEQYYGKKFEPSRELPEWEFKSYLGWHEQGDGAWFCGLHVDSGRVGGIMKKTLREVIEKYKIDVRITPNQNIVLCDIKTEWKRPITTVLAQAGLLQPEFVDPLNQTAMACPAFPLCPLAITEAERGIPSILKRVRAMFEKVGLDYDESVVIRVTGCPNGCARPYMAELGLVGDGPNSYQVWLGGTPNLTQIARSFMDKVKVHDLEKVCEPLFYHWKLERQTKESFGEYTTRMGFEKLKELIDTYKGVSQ

T5: adenosine 5' phosphosulfate reductase isoform APR3 (A. thaliana) (UniProt P92980)
T5 sequence: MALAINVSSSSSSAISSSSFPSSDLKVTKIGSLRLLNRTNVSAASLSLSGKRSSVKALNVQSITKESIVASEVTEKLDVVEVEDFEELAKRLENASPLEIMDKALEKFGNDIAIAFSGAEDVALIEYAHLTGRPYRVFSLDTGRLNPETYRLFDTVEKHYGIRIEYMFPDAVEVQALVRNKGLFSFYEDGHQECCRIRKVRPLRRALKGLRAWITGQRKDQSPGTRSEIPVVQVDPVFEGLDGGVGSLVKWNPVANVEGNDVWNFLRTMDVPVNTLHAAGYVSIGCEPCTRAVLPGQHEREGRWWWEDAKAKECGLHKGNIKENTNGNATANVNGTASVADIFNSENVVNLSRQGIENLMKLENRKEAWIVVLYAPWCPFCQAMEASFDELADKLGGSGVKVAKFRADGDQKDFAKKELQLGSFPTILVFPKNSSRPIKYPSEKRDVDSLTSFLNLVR

T6: APR1 linked to the C-terminal section of YFP (A. thaliana) (UniProt P92979)
T6 sequence: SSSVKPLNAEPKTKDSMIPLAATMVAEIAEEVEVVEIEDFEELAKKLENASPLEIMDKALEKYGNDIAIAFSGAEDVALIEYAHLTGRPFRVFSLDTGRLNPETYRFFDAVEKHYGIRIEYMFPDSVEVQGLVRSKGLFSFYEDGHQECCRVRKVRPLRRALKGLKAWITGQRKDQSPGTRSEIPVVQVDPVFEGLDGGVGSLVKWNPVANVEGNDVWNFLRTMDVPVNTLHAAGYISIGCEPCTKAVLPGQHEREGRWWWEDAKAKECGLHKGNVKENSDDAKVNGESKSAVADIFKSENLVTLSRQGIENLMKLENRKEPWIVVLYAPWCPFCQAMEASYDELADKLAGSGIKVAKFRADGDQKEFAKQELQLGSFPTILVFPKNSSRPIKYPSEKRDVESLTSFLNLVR

T7: ATPS1 linked to the C-terminal section of YFP (A. thaliana) (UniProt Q9LIK9)
T7 sequence: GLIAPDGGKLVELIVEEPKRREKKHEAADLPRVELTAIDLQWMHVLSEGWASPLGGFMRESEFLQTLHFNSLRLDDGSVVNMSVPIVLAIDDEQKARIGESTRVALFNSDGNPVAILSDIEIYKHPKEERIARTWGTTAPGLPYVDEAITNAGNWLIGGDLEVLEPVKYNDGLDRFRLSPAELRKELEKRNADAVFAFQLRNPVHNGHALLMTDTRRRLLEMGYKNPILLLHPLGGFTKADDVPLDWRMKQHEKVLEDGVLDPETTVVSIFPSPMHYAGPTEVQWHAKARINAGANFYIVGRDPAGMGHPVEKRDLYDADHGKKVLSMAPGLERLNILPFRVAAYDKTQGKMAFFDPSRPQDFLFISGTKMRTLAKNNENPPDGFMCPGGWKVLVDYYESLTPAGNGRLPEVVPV

T8: SiR linked to the C-terminal section of YFP (A. thaliana) (UniProt Q9LZ66)
T8 sequence: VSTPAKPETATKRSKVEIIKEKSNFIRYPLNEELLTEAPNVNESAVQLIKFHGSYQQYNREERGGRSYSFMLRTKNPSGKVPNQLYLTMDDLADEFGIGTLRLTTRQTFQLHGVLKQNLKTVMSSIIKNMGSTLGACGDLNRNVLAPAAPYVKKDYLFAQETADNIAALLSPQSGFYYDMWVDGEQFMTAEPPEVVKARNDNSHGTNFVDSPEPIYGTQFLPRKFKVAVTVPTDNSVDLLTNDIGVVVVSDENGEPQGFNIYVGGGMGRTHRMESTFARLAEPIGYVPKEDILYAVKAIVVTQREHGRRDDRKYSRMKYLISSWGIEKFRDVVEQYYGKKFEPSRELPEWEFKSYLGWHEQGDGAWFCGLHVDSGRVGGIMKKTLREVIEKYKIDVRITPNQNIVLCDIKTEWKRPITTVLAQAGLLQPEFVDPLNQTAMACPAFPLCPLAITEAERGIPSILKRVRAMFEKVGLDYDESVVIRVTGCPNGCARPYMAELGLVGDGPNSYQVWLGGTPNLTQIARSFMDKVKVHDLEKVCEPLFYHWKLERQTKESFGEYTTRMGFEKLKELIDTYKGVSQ


Experiments:
[1] = biological target: T1, ATP sulfurylase isoform ATPS1 (A. …); experiment: two-hybrid; yeast two-hybrid, ORFs in pDEST-GAD or pDEST-GBK (GAL4 AD and BD fusions); the panel of enzymes and LSU proteins tested in both orientations; growth on selection media, plates 3 days at 30°C; conditions: remark: other sources report otherwise
[2] = biological target: T2, adenosine 5' phosphosulfate reductase isoform APR1 (A. thaliana); experiment: as above
[3] = biological target: T3, adenosine 5' phosphosulfate reductase isoform APR2 (A. thaliana); experiment: as above
[4] = biological target: T4, sulfite reductase (SiR) (A. thaliana); experiment: as above
[5] = biological target: T5, adenosine 5' phosphosulfate reductase isoform APR3 (A. thaliana); experiment: as above
[6] = biological target: T6, APR1 linked to the C-terminal section of YFP (A. thaliana); experiment: split reporter; BiFC in agroinfiltrated N. benthamiana leaves; nEYFP linked to LSU1, cEYFP linked to ATPS1, APR1 or SiR; confocal microscopy
[7] = biological target: T7, ATPS1 linked to the C-terminal section of YFP (A. thaliana); experiment: as above
[8] = biological target: T8, SiR linked to the C-terminal section of YFP (A. thaliana); experiment: as above

| Binder | binding [1] | binding [2] | binding [3] | binding [4] | binding [5] | further results |
| --- | --- | --- | --- | --- | --- | --- |
| LSU1 (RESPONSE TO LOW SULFUR 1), Q9SCK1 1-94 (protein) MANRGGCVTVAAEEMDELRRRNIELSREVAEMKTEMIKLWQRTVVAEEAEEQLCSQLAELEVESLEQARDYHDRMLFLMDQISRLSSSSVVSSS | binds |  |  |  |  |  |
| LSU2 (RESPONSE TO LOW SULFUR 2) (protein, UniProt Q9FIR9 1-94) MGKGGNYVTVAASEVDELRRKNGEMEKAVEEMKKEMLQLWRRTQVAEEAEERLCSQLAELEAESLDQARDYHSRIIFLMNELSRLSSDSASASP |  | binds | binds | binds | binds |  |
| LSU3 (RESPONSE TO LOW SULFUR 3) (protein, UniProt Q9SCK2 1-97) MGKGGGYVTVAAEEVEELRRRNGELEREMEEMKKEMVQLWRRTVVAEEAEERLCSQLAELEVESLDQARDYHSRIVFLMDQISRLSSSSLEVVVTNS |  | binds | binds | binds | binds |  |
| LSU4 (RESPONSE TO LOW SULFUR 4) (protein, UniProt Q8L8S2 1-92) MGKGGNYVMVAASEVEELRQKNGEMEKAVEEMRKEMLQLWRRTQVAEEAEEHLCSQLAELEAESLDQARDYHTRIIFLTNQLSRFSSDSASP |  | binds | binds | binds | binds |  |
| LSU2 (RESPONSE TO LOW SULFUR 2), Q9FIR9 1-94 (protein) MGKGGNYVTVAASEVDELRRKNGEMEKAVEEMKKEMLQLWRRTQVAEEAEERLCSQLAELEAESLDQARDYHSRIIFLMNELSRLSSDSASASP | binds |  |  |  |  |  |
| LSU1 linked to the N-terminal section of YFP (protein, UniProt Q9SCK1 1-94) MANRGGCVTVAAEEMDELRRRNIELSREVAEMKTEMIKLWQRTVVAEEAEEQLCSQLAELEVESLEQARDYHDRMLFLMDQISRLSSSSVVSSS |  |  |  |  |  | binding [6]: binds; binding [7]: binds; binding [8]: binds |
| LSU3 (RESPONSE TO LOW SULFUR 3), Q9SCK2 1-97 (protein) MGKGGGYVTVAAEEVEELRRRNGELEREMEEMKKEMVQLWRRTVVAEEAEERLCSQLAELEVESLDQARDYHSRIVFLMDQISRLSSSSLEVVVTNS | binds |  |  |  |  |  |
| LSU4 (RESPONSE TO LOW SULFUR 4), Q8L8S2 1-92 (protein) MGKGGNYVMVAASEVEELRQKNGEMEKAVEEMRKEMLQLWRRTQVAEEAEEHLCSQLAELEAESLDQARDYHTRIIFLTNQLSRFSSDSASP | binds |  |  |  |  |  |
| ZIP protein, DNA-binding domain (bZIP domain) of ABF3 (domain or fragment, UniProt Q9M7Q3 372-435) IERRQKRMIKNRESAARSRARKQAYTMELEAEIAQLKELNEELQKKQVEIMEKQKNQLLEPLRQ |  |  |  | no binding |  |  |
